Assay results as given in publication PMC4336329 (PLoS ONE, 2015).
Screen size: about 310,000 compounds; about 2,200 (0.71%) showed an effect of 50% or more. The effect is printed as a negative number. Some of the results follow.

Target: human ether-à-go-go-related gene (hERG) potassium channel (human, UniProt Q12809)
Test: primary screen, population patch clamp on CHO cells stably expressing hERG

human ether-à-go-go-related gene (hERG) potassium channel, sequence (Q12809 whole entry, looked up): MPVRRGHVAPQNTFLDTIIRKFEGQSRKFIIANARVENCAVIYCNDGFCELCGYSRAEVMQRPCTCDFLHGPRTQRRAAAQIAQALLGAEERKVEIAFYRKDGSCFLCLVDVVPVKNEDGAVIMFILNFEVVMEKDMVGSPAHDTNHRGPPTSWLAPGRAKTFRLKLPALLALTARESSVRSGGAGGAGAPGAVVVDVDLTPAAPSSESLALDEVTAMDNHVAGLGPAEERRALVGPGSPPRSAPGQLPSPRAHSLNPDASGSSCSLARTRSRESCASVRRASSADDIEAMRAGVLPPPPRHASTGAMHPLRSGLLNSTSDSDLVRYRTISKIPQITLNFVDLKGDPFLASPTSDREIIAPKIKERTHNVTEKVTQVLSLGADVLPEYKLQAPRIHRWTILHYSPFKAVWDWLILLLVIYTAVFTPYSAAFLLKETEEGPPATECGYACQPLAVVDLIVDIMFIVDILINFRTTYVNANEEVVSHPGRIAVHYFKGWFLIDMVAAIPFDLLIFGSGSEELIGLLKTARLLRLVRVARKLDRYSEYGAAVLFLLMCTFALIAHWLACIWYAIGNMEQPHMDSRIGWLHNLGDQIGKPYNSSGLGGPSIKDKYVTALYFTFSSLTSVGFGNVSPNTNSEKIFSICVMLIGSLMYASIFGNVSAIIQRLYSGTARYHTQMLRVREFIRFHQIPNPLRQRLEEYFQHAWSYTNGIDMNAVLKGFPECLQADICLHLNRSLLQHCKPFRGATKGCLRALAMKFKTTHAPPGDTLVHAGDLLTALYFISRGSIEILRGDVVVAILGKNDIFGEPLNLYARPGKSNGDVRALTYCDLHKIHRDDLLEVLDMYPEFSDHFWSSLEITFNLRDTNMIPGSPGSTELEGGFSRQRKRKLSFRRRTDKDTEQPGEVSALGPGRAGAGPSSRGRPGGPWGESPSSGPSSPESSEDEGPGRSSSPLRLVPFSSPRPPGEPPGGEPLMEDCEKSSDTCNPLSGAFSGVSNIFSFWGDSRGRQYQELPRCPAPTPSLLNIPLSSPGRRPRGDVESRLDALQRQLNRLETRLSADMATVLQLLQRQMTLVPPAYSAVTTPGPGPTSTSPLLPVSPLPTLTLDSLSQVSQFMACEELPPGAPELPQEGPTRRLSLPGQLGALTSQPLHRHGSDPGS

Going from `COc1ccc(CNC(=O)c2nn(C)c3c2CS(=O)(=O)c2ccccc2-3)cc1` to `COCCN1CCN(C(=O)c2ccc3c(c2)S(=O)(=O)c2ccccc2C3=O)CC1`, the “hERG current change (%, negative = inhibition) at 1uM” value falls from 13.4% to 10.8%.

Going from `CCCCOC(=O)C1=C(C)Nc2ncnn2C1c1cc(OC)ccc1OC` (centres unmarked) to `COc1ccccc1NS(=O)(=O)c1cc(-c2cc(C)no2)ccc1OC`, the “hERG current change (%, negative = inhibition) at 1uM” value rises from 0.0597% to 8.25%.

First: COc1cc2nc(N(CCCN(C)C)C(=O)c3ccc(S(=O)(=O)N4CCc5ccccc5C4)cc3)sc2cc1OC.Cl
Second: COc1ccc(OC)c2c1sc(=NC(=O)c1cccc(N3C(=O)CCC3=O)c1)n2C
The “hERG current change (%, negative = inhibition) at 1uM” value of the first is lower: 0.119% for the first, 10.9% for the second.

Compared with `O=C(/C=C/c1ccccc1)Nc1cccc(S(=O)(=O)Nc2ccccc2F)c1`, `Cc1ccccc1NC(=O)CSc1nc2ccccc2o1` is lower in “hERG current change (%, negative = inhibition) at 1uM” value: 12.2% for the first, -5.05% for the second.

First: CC1(C)CC(NC(=O)c2cccc(Cl)c2)CC(C)(C)N1
Second: CCOC(CNC(=O)c1cccc([N+](=O)[O-])c1)OCC
The “hERG current change (%, negative = inhibition) at 1uM” value of the first is higher: 12.2% for the first, 10.3% for the second.

Going from `C=CCN=C1CC(C)(C)CC(=O)/C1=C(/O)CCC(=O)OC` to `CCN(CC)C(=O)C(C)OC(=O)c1ccc(O)cc1` (centres unmarked), the “hERG current change (%, negative = inhibition) at 1uM” value falls from 9.05% to 2.6%.

First: CCN(CCCNC(=O)CNC(=O)Cn1cnc2ccccc2c1=O)c1cccc(C)c1
Second: Cc1cccc(N2CCN(C(=O)CCNC(=O)Cn3ccc4ccccc4c3=O)CC2)c1C
The “hERG current change (%, negative = inhibition) at 1uM” value of the first is higher: 15.7% for the first, 0.73% for the second.

First: CC(C)CCNC(=O)c1ccc(-n2cnc3cccnc32)cc1
Second: O=C(Cn1nnc2ccccc21)OCC(=O)c1ccc(F)cc1
The “hERG current change (%, negative = inhibition) at 1uM” value of the first is higher: 14.7% for the first, 10.4% for the second.

Going from `O=C(CCN1C(=O)c2ccccc2C1=O)C1=NN[C@@H]2C(=O)N(c3ccc(F)cc3)C(=O)[C@H]12` to `Cc1ccc(N2C(=O)NC(=O)/C(=C\c3ccc([N+](=O)[O-])o3)C2=O)cc1`, the “hERG current change (%, negative = inhibition) at 1uM” value rises from 11.3% to 12.3%.

First: CCOc1ccc(OCc2cccc(C(=O)O)c2)cc1
Second: CCOc1ccc(CCNC(=O)c2ccc(C)c(NC3=NC4CS(=O)(=O)CC4S3)c2)cc1 (centres unmarked)
The “hERG current change (%, negative = inhibition) at 1uM” value of the first is lower: 5.81% for the first, 17.7% for the second.

First: Nc1ncc(Br)cc1S(=O)(=O)NCCC(=O)Nc1cccc(Cl)c1
Second: O=C(Nc1ccc(Cl)c(Cl)c1)Nc1nccs1
The “hERG current change (%, negative = inhibition) at 1uM” value of the first is higher: 6.21% for the first, 5.62% for the second.

Compared with `Nc1cc(-c2cccc([N+](=O)[O-])c2)[nH]n1`, `COc1ccc(C(=O)Nc2c(C)ccc3nsnc23)cc1[N+](=O)[O-]` is higher in “hERG current change (%, negative = inhibition) at 1uM” value: -2.3% for the first, 3.23% for the second.

Going from `CC(C)c1nnc(NC(=O)C2CCCCC2)s1` to `COc1ccccc1NC(=O)Nc1nnc(C(C)C)s1`, the “hERG current change (%, negative = inhibition) at 1uM” value falls from 5.88% to 4.9%.

First: O=C(COC(=O)c1ccc(Br)cc1)NCCN1C(=O)CSC1=O
Second: CCCCCn1c(=O)[nH]c2cc(C(=O)O)ccc2c1=O
The “hERG current change (%, negative = inhibition) at 1uM” value of the first is higher: 17.4% for the first, 16.4% for the second.

Compared with `O=C(COc1ccc2c3c(c(=O)oc2c1)CCCC3)N1CCN(c2ccc(F)cc2)CC1`, `Cc1onc(-c2ccccc2Cl)c1C(=O)N1CCN(S(=O)(=O)c2ccc(F)c(F)c2)CC1` is higher in “hERG current change (%, negative = inhibition) at 1uM” value: 7.61% for the first, 11.5% for the second.

First: Cc1ccc(NC(=O)CSCC(=O)NCCc2ccccc2)c(C)c1
Second: CC(=O)N(CCc1cccc(C)c1)Cc1cc2ccc(C)cc2[nH]c1=O
The “hERG current change (%, negative = inhibition) at 1uM” value of the first is higher: 7.16% for the first, 0.292% for the second.

Compared with `N/C(=N\OC(=O)Cc1ccccc1)c1ccc(Br)cc1`, `Cc1ccc(NC(=O)Cn2ccc(=O)[nH]c2=O)cc1` is higher in “hERG current change (%, negative = inhibition) at 1uM” value: 8.13% for the first, 16.3% for the second.

First: Cc1ccc(OCC(=O)Nc2ccc(-c3nc4ncccc4o3)cc2)c(C)c1
Second: Cc1ccnc(NC(=O)c2c(-c3ccccc3Cl)noc2C)c1
The “hERG current change (%, negative = inhibition) at 1uM” value of the first is higher: 20.1% for the first, 5.64% for the second.

Compared with `CCc1ccc(-c2cn3nc(C)c(C)nc3n2)cc1`, `COc1ccnc(NCc2ccc(Cl)cc2)c1C#N` is higher in “hERG current change (%, negative = inhibition) at 1uM” value: 9.99% for the first, 16.1% for the second.

First: CCc1c(C)nc(SCC(=O)Nc2ccc3c(c2)OCCO3)[nH]c1=O
Second: CCOCC(=O)Nc1ccc(F)c(F)c1
The “hERG current change (%, negative = inhibition) at 1uM” value of the first is higher: 10.8% for the first, 1.65% for the second.

Going from `CCOc1ccc2c(C)c(C)c(=O)oc2c1OCC` to `Cc1cccc(-n2ncc3c(NC(C)C)ncnc32)c1`, the “hERG current change (%, negative = inhibition) at 1uM” value rises from 3.45% to 12.7%.

Compared with `O=C(CSc1ncc(-c2ccc(F)cc2)n1Cc1ccco1)Nc1nccs1`, `Cn1ncc2c(Nc3cccc(C(=O)O)c3)ncnc21` is higher in “hERG current change (%, negative = inhibition) at 1uM” value: 4.47% for the first, 4.58% for the second.
